Experimental data taken from ChEMBL document CHEMBL1201862, “PubChem BioAssay data set” (2004).
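Growth conditions: 96-well plates. Treatment: test compound, 48 hours, 5 concentrations. Analysis: linear interpolation between bracketing concentrations; unreached endpoints set to highest concentration. Here, GI50 denotes the concentration required for 50% inhibition of growth.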 Active and inactive are the calls of the source. Rule as the data show it: active = GI50 up to about 1.1 µM and inactive = higher. Peptide text beside a SMILES is read from it. * marks the point of attachment. Boc = CC(C)(C)OC(=O)*

These molecules were tested on NCI-H322M (assay: DTP human tumour cell line panel, 48 h).
In the case of `Nc1c2c(nc3ccccc13)CCCc1ccccc1-2`, the GI50 is reported as inactive: 8.75 µM.
With `CN(C)CCNC(=O)c1cc(Cl)cc2cc3ccccc3nc12` the GI50 was inactive: 1.13 µM.
`Cc1ccccc1N1C(=O)C2C=CC(n3[nH]c(=O)n(Cc4ccccc4)c3=O)CC2C1=O` (configuration not stated) was tested, and the GI50 was inactive: > 100 µM.
In the case of `CCC(C)NC(=S)N/N=C(\C)c1ccccn1` (configuration not stated), the GI50 is reported as active: < 0.024 µM.
With `c1ccc(/N=C2\c3ccccc3C3=NCCCN32)cc1` the GI50 was inactive: > 100 µM.
With `Cn1c(=O)c2c(nc(Nc3ccc(Cl)cc3)n3c(=O)n(-c4ccccc4)c(=O)n23)n(C)c1=O` the GI50 was inactive: > 100 µM.
`Cc1nc2c(o1)C(=O)c1ccccc1/C2=N/c1ccc(N2CCOCC2)cc1` was tested, and the GI50 was inactive: 16.1 µM.
With `Cc1cc(C)n(-c2nc(-n3nc(C)cc3C)nc(-n3nc(C)cc3C)n2)n1` the GI50 was inactive: > 100 µM.
With `CC(C)(C)c1cc(C(C)(C)C)c(P=C(Cl)Cl)c(C(C)(C)C)c1` (configuration not stated) the GI50 was inactive: > 100 µM.
For `Cc1cc(Cl)ccc1NC(=O)CC/C(CC(=O)C(C)C)=N\NC(=O)C[n+]1ccccc1`, the GI50 was inactive: > 100 µM.
In the case of `CCc1ccccc1NC(=O)CCc1n[nH]c(=S)o1`, the GI50 is reported as inactive: > 100 µM.
`c1ccc2c(c1)nnn2C1CCCCO1` (configuration not stated) was tested, and the GI50 was inactive: > 100 µM.
`C/C(=N\Nc1nc2ccccc2o1)c1cccc[n+]1[O-]` was tested, and the GI50 was inactive: 19.8 µM.
`CCCCCCCCCCCCCCCCOP(=O)(O)OCC(N)C(=O)O` (configuration not stated) was tested, and the GI50 was inactive: 34.4 µM.
For `Cc1cc(C)c(N[S+]([O-])c2cccc(C(F)(F)F)c2)c(C)c1` (configuration not stated), the GI50 was inactive: > 100 µM.
With `COC(=O)[C@](NC(=O)OCc1ccccc1)([C@@H](C)[S+]([O-])c1ccc(C)cc1)C(F)(F)F` (some centres not stated) the GI50 was inactive: > 100 µM.
`CC1(C)OC2C(CO)OC(n3cnc(N)nc3=O)C2O1` (configuration not stated) was tested, and the GI50 was inactive: > 100 µM.
In the case of `CC(=O)OCc1ccc2oc(=O)c(C(=O)Oc3cccc(Cl)c3)cc2c1`, the GI50 is reported as inactive: 22.2 µM.
In the case of `CN(C)c1nc(NC23CC4CC(CC(C4)C2)C3)nc(N(C)C)n1`, the GI50 is reported as inactive: 5.64 µM.
In the case of `O=C1/C(=C\c2cccc(Oc3ccccc3)c2)SC(c2ccccc2)N1Cc1ccccc1` (configuration not stated), the GI50 is reported as inactive: 55.5 µM.
For `CN(C)Cc1cc(Cl)c(O)c(CN(C)C)c1`, the GI50 was inactive: > 100 µM.
`CC(/C=N/N(C)C1=NCCCCN1)=N/N(C)C1=NCCCCN1` was tested, and the GI50 was inactive: > 100 µM.
In the case of `CC(C)Oc1cccc(N2C(NCc3c[nH]c4ccccc34)=Nc3ccncc3S2(=O)=O)c1`, the GI50 is reported as inactive: 22.7 µM.
In the case of `CCCCN(c1ccccc1)c1ncnc2c1cnn2C`, the GI50 is reported as inactive: 56 µM.
With `C/C(CC(=O)Nc1cccc(Cl)c1C)=N\NC(N)=S` the GI50 was inactive: > 100 µM.
`CSCCC(NC(=O)C(CC(C)C)NC(=O)CNC(=O)OC(C)(C)C)C(=O)N(C)C` (stereo not drawn) (Boc-Gly-Leu-Met-NMe2; configuration not given here) was tested, and the GI50 was inactive: > 100 µM.
`O=C1CSC(=S)N1c1ccco1` was tested, and the GI50 was inactive: > 100 µM.
With `CC(C)(CO)CNc1nc(N)nc(Cl)c1N` the GI50 was inactive: > 100 µM.
For `COC(=O)C(Cc1cc(OC)c(OC)c(OC)c1)c1ccc(OC)cc1` (configuration not stated), the GI50 was inactive: > 100 µM.
`CC1(C)OC(C(N)=O)=C(C(N)=O)O1` was tested, and the GI50 was inactive: > 100 µM.
`N=C(N)SCCc1cn2ccccc2n1` was tested, and the GI50 was inactive: > 100 µM.
`CSc1nc(O)c2cn(Cc3ccccc3)nc2n1` was tested, and the GI50 was inactive: > 66.4 µM.
`CC1=NN(C(=O)Cc2ccccc2)C(=O)/C1=C\C=C\c1ccccc1` was tested, and the GI50 was inactive: > 100 µM.
For `Nc1ccc(Oc2ccc(C34CC5CC6C3CC3CC4C(C5)C6(c4ccc(Oc5ccc(N)cc5)cc4)C3)cc2)cc1`, the GI50 was inactive: 12.4 µM.
With `O=C1C[S+]([O-])C23c4cc5ccccc5n4CCC2CCCN13` (configuration not stated) the GI50 was inactive: > 100 µM.
For `COc1ccc(C(=O)NCCC2CN(S(=O)(=O)C(F)(F)F)c3ccccc32)c(OC)c1` (configuration not stated), the GI50 was inactive: > 100 µM.
With `O=[N+]([O-])[C@@H]1C2C=CC(C2)[C@H]1Cl` (some centres not stated) the GI50 was inactive: > 100 µM.
For `CCCCCCCCC(O)c1ccc(/C=C\C(O)CCCC(=O)O)s1` (configuration not stated), the GI50 was inactive: > 100 µM.
For `COc1cc(-c2cn(S(=O)(=O)c3ccc(C)cc3)c3ccccc23)nc(-c2cn(S(=O)(=O)c3ccc(C)cc3)c3ccccc23)n1`, the GI50 was inactive: 3.28 µM.
`C=C(CCOC)CCC1CCCCC/C1=N\N(C)C` (configuration not stated) was tested, and the GI50 was inactive: > 100 µM.
In the case of `CCOc1cc(C2SCC(=O)N2c2ccc3c(c2)Oc2c(Cl)c4c(c(Cl)c2=N3)Oc2cc(N3C(=O)CSC3c3ccc(O)c(OCC)c3)ccc2N=4)ccc1O` (configuration not stated), the GI50 is reported as inactive: 55.3 µM.
For `CC1(C)CCc2ccc(OCCC(=O)O)cc2O1`, the GI50 was inactive: > 100 µM.
`CC(C)(C)c1ccc(-c2nc3ccc([N+](=O)[O-])cc3c(=O)o2)cc1` was tested, and the GI50 was inactive: 29.9 µM.
In the case of `Cc1cccc(C(O)c2ccccn2)c1O` (configuration not stated), the GI50 is reported as inactive: > 100 µM.
With `CC(NC1CCCC[C@@H]1O)c1ccccc1` (some centres not stated) the GI50 was inactive: > 100 µM.
For `C/C(=N/NC(=S)Nc1ccc(C)cc1)c1ccccn1`, the GI50 was active: < 0.0133 µM.
`CCOC(=O)c1nc2ccc(C(F)(F)F)cc2nc1Nc1ccc(OC)cc1` was tested, and the GI50 was inactive: > 100 µM.
`N#C[C@H](c1nc2ccccc2s1)c1nc2ccccc2nc1Cl` was tested, and the GI50 was inactive: > 100 µM.
For `O=C1NC(=S)N(c2ccccc2)C1=O`, the GI50 was inactive: > 100 µM.
With `CCOC(=O)c1ccc(/N=c2\oc3ccc(OC)cc3cc2-c2nc3ccccc3[nH]2)cc1` the GI50 was inactive: 45.3 µM.
`COc1cc(-c2cc(=O)c3c(O)c(OC)c(OC)c(OC)c3o2)ccc1O` was tested, and the GI50 was inactive: 45 µM.
In the case of `c1nc(N2CC2)c2cnn(C3CCCCO3)c2n1` (configuration not stated), the GI50 is reported as inactive: > 100 µM.
In the case of `CC1(CCCC2(C)CCNC2=O)OCCO1` (configuration not stated), the GI50 is reported as inactive: > 10 µM.
With `OC(c1cccnc1Cl)c1nc2ccccc2c2ccnc(Cl)c12` (configuration not stated) the GI50 was inactive: 24.2 µM.
`CCOC(=O)C1=NN(c2ccc(Cl)cc2)C2=CC(C)=NN(C)C(=S)N21` was tested, and the GI50 was inactive: > 100 µM.
For `NC(Cc1ccc(S(=O)(=O)O)cc1)C(=O)NC(CCCCNC(=O)NCCCCC(NC(=O)C(N)Cc1ccc(S(=O)(=O)O)cc1)C(=O)NC(Cc1ccc(S(=O)(=O)O)cc1)C(=O)O)C(=O)NC(Cc1ccc(S(=O)(=O)O)cc1)C(=O)O` (configuration not stated), the GI50 was inactive: > 100 µM.
In the case of `C/C(=N\NS(=O)(=O)c1ccc([N+](=O)[O-])cc1)c1ccc[n+]([O-])n1`, the GI50 is reported as inactive: 4.02 µM.
In the case of `O=C1c2cc(Cc3ccccc3)c(=O)c(Cc3ccccc3)cc2C(=O)c2cc(Cc3ccccc3)c(=O)c(Cc3ccccc3)cc21`, the GI50 is reported as inactive: > 100 µM.
With `CC(CC(C)[C@H]1CCC2[C@H]3C(CC[C@@]21C)[C@@]1(C)CCC(O)C[C@H]1C[C@@H]3O)C(=O)O` (some centres not stated) the GI50 was inactive: > 100 µM.
`COc1ccccc1CCN1CCN(CCCc2ccccc2)CC1` was tested, and the GI50 was inactive: > 100 µM.
For `S=c1[nH]nc(COc2ccc3c(c2)CCCC3)n1/N=C/c1ccc(Cl)cc1`, the GI50 was inactive: 20.4 µM.
In the case of `O=C(O)C1C2CCC(O2)C1C(=O)NCc1cccnc1` (configuration not stated), the GI50 is reported as inactive: > 100 µM.
In the case of `c1ccc(-c2c(-c3[nH]c4ccccc4c3-c3ccccc3)[nH]c3ccccc23)cc1`, the GI50 is reported as inactive: 4.58 µM.
With `CN(C)CCn1c2c3ccccc3ccc2c2oc(=O)c3ccccc3c21` the GI50 was inactive: 5.26 µM.
With `COc1c(O)c(OC)c(C(=O)/C=C/c2ccccc2)c(O)c1OC` [PEDICIN] the GI50 was inactive: 86.9 µM.
`N#CNc1nc(N)c(-c2ccc(Cl)cc2)c(C(=O)Nc2nccs2)n1` was tested, and the GI50 was inactive: > 100 µM.
`COc1ccc(-n2c(C)nc3ccc(NC4OCC(OC(C)=O)C(OC(C)=O)C4OC(C)=O)cc3c2=O)cc1` (configuration not stated) was tested, and the GI50 was inactive: > 100 µM.
